This is one part of the list.
These sequences were tested on PfAP2-HC AP2 domain (GST-tagged) (assay: gcPBM binding intensity (ln(normalized median fluorescence intensity)); higher = stronger DNA binding).
How it was run: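 Binding intensity is the highest Masliner-normalised natural-log median intensity over replicate spots in either probe orientation. To obtain it, GST-tagged P. falciparum DNA-binding domains made in E. coli were incubated for 1 h on an Agilent 4 × 180k array of primer-extended double-stranded 36-bp intergenic genomic probes plus negative controls. Detection used Alexa488 anti-GST antibody with scanning at 488 nm.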

Row | Sequence | gcPBM binding intensity (ln)
1 | TTTTTATTTTTAAAGGCACACACATTTTTATTTTTA [CACACA_site8624] | 9.97
2 | AATAAATAAATAATATAATGAAATTATAAAATGTGG [TGCATGCA_negctrl_site385] | 9.84
3 | AAATGAAATTTGTATACACACAAATATATTTATATA [CACACA_site6525] | 9.78
4 | TATTTGTGCCAAAAATGAAAAAGTTTGTATAAAACC [CACACA_negctrl_site1406] | 9.49
5 | AAAATTACTATATGAACACACATGATTAGATATATG [CACACA_site3083] | 9.87
6 | TATATATATATATACACACACACCCTAAAAATATAT [CACACA_site1611] | 10.4
7 | TGAAAGAATTAATTTTGTACATATAAAAATTTTATT [XGTACX_site8500] | 9.49
8 | AAAAAAAAAAAATATACACACACATATATATATATA [CACACA_site9123] | 10.3
9 | AACAACAATTTCGTCATACACACATTCAGAATATAT [CACACA_site2371] | 9.85
10 | AATGATCATAAATACACACACACAAAAAAAAAAAAA [CACACA_site6072] | 10.3
11 | TATTAAAAAAATGTATGTACATATATAAATTTTTTT [XGTACX_site1094] | 9.52
12 | GATGGATTTATTTAAAGTACATATTTAAAAAACTGT [XGTACX_site7567] | 9.46
13 | TTTCTCCCATTTTTTAGTACACAAAATATATATGTA [XGTACX_site7218] | 9.66
14 | AAAGTAAAAGAAAGCACACACACATGTATATATGTA [CACACA_site3857] | 10.2
15 | TTTTAAAAATTAAGTGCATGTCCTTATAAAAAAAAA [TGCATGCA_site845] | 9.34
16 | TTCATATATTTAGGACGTACTTTTATATTACTATAT [XGTACX_site6456] | 9.8
17 | AATTTTTTTTTAATCATGCACACTGTTAAAAGAATA [CACACA_site1240] | 9.43
18 | AAAAAATAGAATATAAAAATAAAGGAATTAAATTAA [XGTACX_negctrl_site420] | 9.69
19 | TATATATAAATATATGTGCACTTTTTATATTTATAT | 9.7
20 | ATATGGAATAATACGCGTACACACATATATATATTA [XGTACX_site307] | 9.9
21 | TTTATATCATTACAAGTGCATATCATCATAAATTCT [GTGCAC_site9878] | 9.59
22 | TCTTGATTATATAGTACTACACATTATAAAAAAATT [XGTACX_site2465] | 9.57
23 | TGTTATTATAACATTTTTTTCAAAATAGCTTTAGAA [CACACA_negctrl_site266] | 9.06

Row | Sequence | gcPBM binding intensity (ln)
24 | ATAATACCCAAGCACACACACACACCGATATATATA [CACACA_site8344] | 11.3
25 | AATTTATAAGAATAAAGTACTAAAGATACAACTTTA [XGTACX_site7153] | 9.52
26 | ATTAAAGGAAGCAAAACATGCAACAGCAATATTGCA [TGCATGCA_site452] | 9.6
27 | ATTTTTTTTTTTTTTTTGGGGGGGTATACTTTTAAA [CACACA_negctrl_site1020] | 10.7
28 | TTCCTTTTTTTTTATTGTACAAAAATATCAAAAAGG [XGTACX_site8505] | 9.18
29 | AATTATATAACAAATTGTACGAATGAAAATATTATT [XGTACX_site4237] | 9.72
30 | ATAGAATAAATTTTGTCATTTATTCCTTATATATAA [GTGCAC_negctrl_site227] | 9.56
31 | TAAAAATAGGAATACGCACACGATGATTAATTTATA [CACACA_site1835] | 9.83
32 | TATAATGAGGATGATAGTACGTATTAGTATAAAAAA [XGTACX_site6623] | 9.78
33 | TTTATATATATTTATACACACAAACATAATACTACT [CACACA_site5161] | 9.82
34 | TTTTTAATTTTATATACACACATAAAATATATGAAG [CACACA_site3145] | 9.5
35 | ATATATTGGAGCACAACACACACAAGTATATATATG [CACACA_site8435] | 10.2
36 | AAAAAAAAATACAAAATAGCAATAAATACACAAACG [GTGCAC_negctrl_site707] | 10
37 | AAAAAAAAAAAAAACACACAGAACAATATATAAATA [CACACA_site982] | 10.1
38 | AAAAAAAAAAAAAAAACATGCACAAATTATAAGTGA [TGCATGCA_site378] | 9.6
39 | ACTACATAATACTATTCACACATTTTTTTTTTTTTT [CACACA_site5794] | 9.74
40 | TGTTAAAGAGAAAGTACTACACATATTATGTGTTTT [XGTACX_site1435] | 9.72
41 | TTTTATAAACAGAGGGGTACGGGAAAAAAAAAAAAA [XGTACX_site1480] | 9.53
42 | TTAAAAAAAATTATTTGTACTTAAAAATTTTATATT [XGTACX_site8751] | 9.37
43 | AGAAAAAAAAAACACACACACACACCGTCAATATAA [CACACA_site7895] | 10.6
44 | TTTTTAAACCATGTTGTGCACATTTTTTTTGGATTT | 10
45 | TACATGAATATATAAAGAAAAAAAAAAAAACACACA [XGTACX_negctrl_site350] | 9.79
46 | TATAAATTATATATTTGTACGTATATCACATATATA [XGTACX_site7053] | 9.57

Row | Sequence | gcPBM binding intensity (ln)
47 | TATATGTTATATTTAACACACATATAAGGTACATAT [CACACA_site612] | 9.83
48 | TTTATTGAATAAAATGCACACGCATGCGTTATTTAT [CACACA_site9154] | 9.73
49 | TTCTCATAATTAAATAGTACATATTTTAATAATCAC [XGTACX_site6116] | 9.57
50 | TTTGTACCGGCATTTTTTTTTTCTTTTTTTTTCCAA [XGTACX_negctrl_site323] | 9.63
51 | TTAGTTATTATAATTTGTACACAAATGGTAAAGTAT [XGTACX_site2343] | 9.78
52 | TATTAAAAATGTTAAGTGCAAAAATAAAAATTGTGG [GTGCAC_site9854] | 9.79
53 | AAAATTATATATTATAGTACATAAAATTTTGATATA [XGTACX_site994] | 9.63
54 | AATAAATAAAAATATATATATATAATATACATGTGT [TGCATGCA_negctrl_site369] | 9.9
55 | TTTTATTTCAATCCACAAGGGATAAAATAAAGTTTT [CACACA_negctrl_site699] | 9.3
56 | GGATGTATTTATATGTGTATGTGTTTGGAAATATGT [XGTACX_negctrl_site99] | 9.85
57 | ACATATGAAAAATATGCATGCAAATATTATTTAACA [TGCATGCA_site802] | 9.71
58 | TATGTATGTTAGTGTGCACACATAAATATTATATAT [CACACA_site9121] | 10.1
59 | TTTTTAAAATTTTTAAAAATATTATGTTAAATATAT [CACACA_negctrl_site415] | 9.2
60 | TTGAAAGAAAATAAAATAAAATAAAATAAAATAAAA [CACACA_negctrl_site859] | 9.37
61 | AAAAAAAAAAAAATCTCACACATAAAGAGATTATGA [CACACA_site4408] | 9.43
62 | ATATATATGTATTTATGTACATATTATTTTTCTTAA [XGTACX_site8169] | 9.58
63 | CCGTATATTTTATATAGTACTCATCATATATTTTTA [XGTACX_site5560] | 9.61
64 | CAAATTGGGAAATTTTGTACATATAATAAGGATACC [XGTACX_site7728] | 9.61
65 | GATAATGAATGATGCACACTAAAAATATTCTACAAC [CACACA_site3622] | 10.2
66 | AAACAAAAGATATATACACACTAAACATAAAAAAAA [CACACA_site6161] | 9.89
67 | AAAAACTTTTCAAGTAGTACCATATCTACAATAGTA [XGTACX_site8927] | 9.5
68 | CCTTTATTAAATAAATGTACATATTTTTGTGTTCTT [XGTACX_site2052] | 9.71
69 | AATAAAAATAAAATTGTATATTTTAAATGAAAATAA [CACACA_negctrl_site898] | 9.65

Row | Sequence | gcPBM binding intensity (ln)
70 | GTTGGTAGGATGTATGGTACACGTAGTATTTTTCTT [XGTACX_site2] | 10.1
71 | AAACTCTCTTATATTAAACACACATATATATATGTA [CACACA_site8865] | 9.73
72 | CATCAAAATGCTACATGTACATATATATAATATATT [XGTACX_site5207] | 9.72
73 | AATATATATAAATAAACACACACAAATATAATAAAA [CACACA_site9176] | 10.8
74 | GAAATGAACAAGTGGGTGCGTATTAATTACATATTA | 10.1
75 | ATAGATAAATTTACGGGTACTAAAATGGAATATGAA [XGTACX_site8637] | 9.76
76 | TATTTTACAATAACAATACACACTATAATATATATA [CACACA_site1391] | 9.67
77 | TGTGTTCAGTATTGCACACACACAACCAAATAAAAA [CACACA_site379] | 10.6
78 | ATTCACATATTATCTTTACACACTATATATAAGTTT [CACACA_site8901] | 10
79 | TTTTTAATTTTTTTTAAACACACACCGTACATTCAA [CACACA_site7925] | 9.91
80 | TATATACTTTATAAATGTACATATAATGTATTATTT [XGTACX_site7313] | 9.71
81 | TATATATATACATATTGTACATATTACATGCTATTA [XGTACX_site1184] | 9.77
82 | CATTTTCATTTTAAGGTGCATTAATATTTATTTTAA [GTGCAC_site9437] | 9.53
83 | TCATTTTAAATATGTGTGCACGTTATAATTTACACA | 10.1
84 | TATGAACTTTTGGGGGTGCCTTAAAATGTATATTCT | 9.84
85 | ATATATATATAAAGCAGTACACACATTTATTTTAGA [XGTACX_site7226] | 9.9
86 | TATCAAAGTAGAAGAGATCGATGTCATATTGTGATG [GTGCAC_negctrl_site42] | 9.69
87 | TCCCAATTTATTATGTGTACTTATTATATACATATA [XGTACX_site4033] | 9.72
88 | TTATGAATACTTCAAGTGCATTTATTTTATATGACA | 9.53
89 | ATTGTGGATATTCTTACACACAAATTTATATATAAA [CACACA_site2601] | 9.6

— the supplement of paper PMC11417369
